# Source: the supplement of paper PMC3724861
# This is one part of the list.
# Test system: T1, Caupolican (Caup) homeodomain DNA-binding domain
# T1 sequence: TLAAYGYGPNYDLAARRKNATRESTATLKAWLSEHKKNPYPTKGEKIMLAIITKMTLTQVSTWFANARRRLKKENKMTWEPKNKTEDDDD
# Assay: PBM E-score (8-mer, recovered from the published 9-mer minima) (E-score (dimensionless, -0.5 to 0.5)); Drosophila protein; higher = stronger relative binding preference, active = 0.31 or more
# How it was run: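 Caup's homeodomain DNA-binding domain (residues 214-303) was produced by in vitro transcription and translation and applied at 100 nM to custom-designed protein binding microarrays. Each value is an enrichment score giving relative binding preference for a short DNA word; higher means stronger. Published 9-mer scores were the minimum of their two constituent 8-mer scores, and the 8-mer values were recovered from those minima. A cutoff of 0.31 marks candidate binding sequences.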
row,Sequence,PBM E-score
1,GAGTGGAC,inactive: -0.0327
2,GCGATGAC,inactive: 0.0191
3,CCGTGATA,inactive: -0.0342
4,AAAATGTG,inactive: 0.0604
5,TCACCCCA,inactive: -0.00423
6,AGTATGAC,inactive: 0.112
7,AATATCCA,inactive: 0.092
8,CACCCCAG,inactive: -0.155
9,CCGTCAAC,inactive: -0.0657
10,AATCCACA,inactive: 0.0486
11,AGGTTGGG,inactive: -0.0501
12,AACCCACG,inactive: -0.0225
13,GTCGTGTA,active: 0.386
14,ATATAGAT,inactive: 0.143
15,AAGGCACG,inactive: -0.0938
16,AAGTAAGA,inactive: -0.0164
17,GGGGGATA,inactive: -0.172
18,GCGCTACA,inactive: 0.073
19,AAATTCCC,inactive: -0.0534
20,AATGGCGT,inactive: -0.0327
21,AAATGTCC,inactive: 0.126
22,GCTAACGA,inactive: -0.0255
23,CATAAATG,inactive: 0.111
24,AACTTACA,active: ≥ 0.344
25,CATCTTTC,inactive: 0.113

row,Sequence,PBM E-score
1,ACACCCAT,inactive: 0.115
2,GGCCAGGA,inactive: -0.22
3,CGTGTCCC,inactive: 0.149
4,GACAGGAC,inactive: 0.0631
5,ACTCATCG,inactive: 0.0315
6,ACTCTGAC,inactive: 0.0493
7,GGCCTAGA,inactive: -0.155
8,AGGTAGTC,inactive: -0.00078
9,AGCCAGAC,inactive: -0.0522
10,GCATTGAA,inactive: -0.0209
11,GTAGCGAC,inactive: -0.0304
12,CGTAAAAC,inactive: -0.0282
13,GTAGCCTA,inactive: 0.0282
14,CGACATTA,inactive: 0.202
15,CCCCCAGG,inactive: -0.299
16,GTGAAACA,inactive: 0.154
17,GGTCCATA,inactive: -0.0606
18,ATCCTGGA,inactive: 0.0324
19,ATGATTTC,inactive: 0.102
20,AGGATTAA,inactive: 0.0606
21,ATGGTCAG,inactive: 0.0177
22,TATGAAAA,inactive: 0.106
23,GAACTGGA,inactive: -0.0731
24,CGCGTGAA,inactive: -0.0423
25,GGAGCTAA,inactive: -0.0711

row,Sequence,PBM E-score
1,AACATGGT,active: 0.37
2,TGAGCTAA,inactive: -0.023
3,AGAGACAA,inactive: 0.072
4,GATAGGCA,inactive: -0.0178
5,CAAACTCC,inactive: 0.0408
6,AGACTACT,inactive: 0.102
7,ACAAATGA,inactive: 0.154
8,ATCCTAAC,inactive: 0.0821
9,CGAGCCGC,inactive: -0.152
10,AGGTAAGG,inactive: 0.00867
11,CATAGGGG,inactive: -0.105
12,GCCGACCA,inactive: -0.0914
13,GGACGCCA,inactive: -0.254
14,CAATGTCG,inactive: 0.227
15,AATGAGTC,≥ 0.0883
16,AGCGCCTG,inactive: -0.167
17,GACCATTA,inactive: 0.0717
18,ACTTACAC,inactive: 0.245
19,GCGTTGCC,inactive: -0.122
20,CTTAGCGA,inactive: -0.0584
21,AAGAAGCT,≥ -0.0362
22,ATGCTTAG,inactive: 0.12
23,AACAAGCG,inactive: 0.237
24,TACCGAAA,inactive: -0.0217
25,CCTTACAC,inactive: 0.169

row,Sequence,PBM E-score
1,TACACAGA,inactive: 0.275
2,AGGCGGAG,inactive: -0.179
3,GCGCAGCC,inactive: -0.285
4,AGTCGGCA,inactive: -0.0483
5,ATTGTTCC,inactive: 0.112
6,AGAGATTG,inactive: -0.00602
7,AGAGCTGA,inactive: -0.0558
8,AAGCTCGG,inactive: -0.125
9,ACCGCTTA,inactive: -0.00038
10,TAGGAAAA,inactive: 0.00072
11,CTCCTAAA,inactive: -0.0143
12,CAATATTA,inactive: 0.201
13,CGCCATTA,inactive: -0.0602
14,CTGCAAAC,inactive: 0.0559
15,CAGCAAGA,inactive: -0.057
16,AATCGCTG,inactive: -0.0321
17,CGAATGTA,inactive: 0.226
18,AATCCCCC,inactive: -0.256
19,GCGGCAAA,inactive: -0.123
20,ATGTAATC,active: 0.348
21,CCGTCTTA,inactive: -0.142
22,GACTTGAC,inactive: 0.0181
23,AATGAAGC,inactive: -0.0494
24,CCCTGTCC,inactive: -0.0132
25,AACCAACG,inactive: -0.0341

row,Sequence,PBM E-score
1,TATTTCGA,inactive: 0.126
2,GGTGGTAC,inactive: 0.00466
3,AGACACCG,inactive: -0.0063
4,ACCCATGC,inactive: 0.0153
5,TCATCAGA,inactive: 0.0447
6,AAGATCTC,inactive: -0.0207
7,GGGAACAC,inactive: 0.112
8,CGACCAAC,inactive: 0.00225
9,AATACTAG,inactive: 0.189
10,ACGGGGCC,inactive: -0.282
11,CTCGATCC,inactive: -0.0894
12,CTTTAAGC,inactive: -0.091
13,CTCTACCC,inactive: -0.131
14,GAGGAAGC,inactive: -0.229
15,ATGACAGC,inactive: 0.202
16,CTCAGCTC,inactive: -0.205
17,CCTCCCTA,inactive: -0.196
18,GATGGAGA,inactive: -0.0438
19,CAGATGTC,inactive: 0.253
20,ACTCCCGG,inactive: -0.138
21,CACACGTC,inactive: 0.128
22,AAGTCACT,≥ 0.112
23,CCCCGTAC,inactive: -0.201
24,GGCTGCCA,inactive: -0.145
25,AACGGAGC,inactive: -0.15

row,Sequence,PBM E-score
1,AGATCTGG,inactive: -0.0563
2,AATTCCGA,≥ 0.137
3,AGAGATTC,inactive: 0.0693
4,GGCAACAA,inactive: 0.153
5,TAGTTATA,inactive: 0.209
6,ACGGTGCG,inactive: -0.0331
7,GTCAATTA,inactive: 0.0898
8,ACACGAAA,inactive: 0.208
9,CGCGATCC,inactive: -0.0878
10,GACAATGC,inactive: 0.133
11,GAGATCCA,inactive: -0.0672
12,CTTACAAA,inactive: 0.181
13,ACCGCCGA,inactive: -0.0752
14,ACATGCCT,inactive: 0.254
15,TATTGTCA,inactive: 0.225
16,ATTCTGAG,inactive: -0.0481
17,ATTTCACA,≥ 0.161
18,GTCACTGA,inactive: 0.0354
19,CATCTTCG,inactive: -0.0302
20,AGGACTTC,inactive: -0.0992
21,AAACAAGA,inactive: 0.3
22,AGACCACG,inactive: -0.151
23,GTGGAAAA,inactive: 0.0388
24,GTGCGAAA,inactive: 0.0321
25,CCAGCGTC,inactive: -0.225

row,Sequence,PBM E-score
1,CACTCATC,inactive: 0.0214
2,CGCGCCAC,inactive: -0.154
3,AGACCCAA,inactive: -0.131
4,CAAAACCC,inactive: -0.0398
5,AGTAGCAA,inactive: 0.0952
6,GGTGAGTA,inactive: 0.0634
7,AGCAGCGC,inactive: -0.15
8,ACCCCGAG,≥ -0.102
9,CGGGAACG,inactive: -0.259
10,AGGCCTGC,inactive: -0.156
11,AGTCCTCG,inactive: -0.00545
12,GGAGCGGA,inactive: -0.197
13,AAGTGTGG,inactive: -0.0403
14,CATCGACA,inactive: 0.112
15,CATGAATA,inactive: 0.159
16,ACACACTC,inactive: 0.189
17,AACGCCTA,inactive: 0.0206
18,GACGCATA,inactive: -0.00306
19,ACCATTGG,inactive: -0.017
20,ACTCCCTC,inactive: -0.198
21,ACTGACGG,inactive: -0.187
22,AACTTGGC,inactive: -0.0399
23,AGCCTGAA,inactive: -0.098
24,ATGCTCGC,inactive: -0.0878
25,CTAACTAA,inactive: 0.029

row,Sequence,PBM E-score
1,AAATCCCC,inactive: -0.139
2,CCAGAGCG,inactive: -0.227
3,ACGTCTAC,inactive: 0.054
4,CCTGGACC,inactive: -0.0439
5,ATCGGAAC,inactive: 0.0456
6,ACCCCACG,inactive: -0.196
7,GCGCTAAC,inactive: -0.0781
8,CAGGCAAA,inactive: 0.0265
9,AAGTCGCC,inactive: -0.242
10,GTGGGCAA,inactive: -0.126
11,CTCAGAAG,inactive: -0.12
12,CATAACAA,inactive: 0.308
13,ACGGGTGG,inactive: -0.153
14,AGACCGCT,inactive: -0.133
15,CCACCTAA,inactive: -0.0859
16,ACTCCGAC,inactive: -0.0719
17,ATGCTAAC,≥ 0.201
18,AGCTCTGG,inactive: -0.164
19,AAAATGTC,inactive: 0.217
20,CGCGCACA,inactive: -0.123
21,ATGGTTCC,inactive: 0.0108
22,CAATGGTG,inactive: -0.0165
23,CAACTTGC,inactive: -0.0807
24,CGACCGAG,inactive: -0.187
25,GTGGGAGA,inactive: -0.165

row,Sequence,PBM E-score
1,CATCGAGA,inactive: 0.0127
2,AAAATTGC,inactive: 0.0174
3,CCGTCGGC,inactive: -0.232
4,AGCGAGCC,inactive: -0.182
5,AGAGAGTC,inactive: -0.121
6,ACCCAAGA,inactive: -0.00931
7,GACGTACA,inactive: 0.173
8,GTTTCAGA,inactive: -0.0391
9,CCAGTCAC,inactive: -0.0969
10,CGTTACCC,inactive: -0.0963
11,CTGCGGCA,inactive: -0.131
12,AACCGCCA,inactive: -0.109
13,GAAATAGC,inactive: -0.0179
14,TGATCAAA,inactive: 0.136
15,ATAGTAAA,inactive: 0.221
16,CAACCCGG,inactive: -0.188
17,CATCACGA,inactive: 0.107
18,CTCTGTCC,inactive: 0.0668
19,AATGACAG,inactive: 0.219
20,GACTTGCC,inactive: -0.0874
21,ACAAGAGA,inactive: 0.203
22,CTAGGCAA,inactive: -0.109
23,ATACATTC,active: ≥ 0.314
